According to PubChem BioAssay AID485344 (National Center for Advancing Translational Sciences (NCATS), 2010):
The whole screen tested about 340,000 compounds, of which about 6,900 (2%) were called active. Rule as the data show it: active = inhibition above about 30%; inactive = below that, where a call was filed. This is a selection; strong and weak results do not stand in their true shares. Entries without a call were filed so in the source.

biological target: D(2) dopamine receptor (Homo sapiens) (UniProt P14416); assay: HTS Assay for Allosteric Antagonists of the Human D2 Dopamine Receptor: Primary Screen for Antagonists; conditions: HEK293 TREx D2 cells, calcium flux, dopamine EC80; at 10 µM; stronger effect = higher value; also: 0% is about no effect
Chain of UniProt P14416 (P14416 whole entry, looked up): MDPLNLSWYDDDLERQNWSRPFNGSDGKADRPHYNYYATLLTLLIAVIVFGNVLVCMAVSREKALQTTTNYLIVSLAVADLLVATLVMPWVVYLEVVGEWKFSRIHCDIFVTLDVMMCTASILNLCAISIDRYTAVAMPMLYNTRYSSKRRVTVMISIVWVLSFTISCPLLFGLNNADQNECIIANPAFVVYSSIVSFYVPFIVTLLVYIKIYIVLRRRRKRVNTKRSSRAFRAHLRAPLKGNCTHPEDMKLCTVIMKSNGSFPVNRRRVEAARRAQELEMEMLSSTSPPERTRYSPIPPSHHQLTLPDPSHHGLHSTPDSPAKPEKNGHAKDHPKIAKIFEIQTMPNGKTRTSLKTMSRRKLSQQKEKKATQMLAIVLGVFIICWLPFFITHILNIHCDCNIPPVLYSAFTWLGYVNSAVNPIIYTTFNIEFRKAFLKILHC
Procedure, shortened: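 In this primary screen, negative modulation is detected by tracking calcium flux after an EC80 dopamine challenge in inducible HEK293 T-REx D2 cells preexposed to test compound for 180 s.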

Going from `Cc1nc2ncnn2c(C)c1CCC(=O)NCc1ccc(Cl)cc1` to `Cc1cc(C)c2c(n1)nn1c(C)c(CCC(=O)Nc3ccc(C)c(Cl)c3)c(C)nc21`, the inhibition rises from -21% to 7.21%.

Going from `Cc1ccc(NC(=O)Cn2ccn(Cc3ccc(Cl)cc3)c(=O)c2=O)cc1C` to `Cc1ccc(CNS(=O)(=O)c2ccc(F)c(C(=O)Nc3ccc(C)c(F)c3)c2)cc1`, the inhibition rises from -7.33% to -2.49%.

First: CCOC(=O)C1CCN(C(=O)c2ccc3c(c2)sc2nc(-c4ccc(OCC)cc4)cn23)CC1
Second: COc1ccc(CNC(=O)c2cnn(-c3ccc(C)cc3)c2C2CCN(C(=O)OC(C)(C)C)CC2)cc1
The inhibition of the first is lower: -6.64% for the first, 8.56% for the second.

Compared with `COc1ccc(-c2nc(SCC(=O)NC3CCCC3)c(-c3ccccc3)[nH]2)cc1OC`, `COc1ccc(-c2cc(C(F)(F)F)nc(NCc3ccccc3)n2)cc1OC` is lower in inhibition: 9.83% for the first, -0.559% for the second.

First: COc1ccc(OC)c(Nc2cc(C(=O)NCc3ccccc3)c3ccccc3n2)c1
Second: COc1cccc(OCc2nc3ccccc3n2Cc2ccccc2)c1
The inhibition of the first is higher: 13.9% for the first, -14.8% for the second.

Compared with `CC(=O)c1cccc(-n2c(CCC(=O)O)ccc2-c2ccccc2)c1`, `CCOC(=O)c1cccc(NC(=O)N2Cc3ccccc3Oc3ncccc32)c1` is lower in inhibition: 5.74% for the first, -9.14% for the second.

Going from `Cc1ccc(-n2ncc3c(Nc4ccc5c(c4)OCCO5)ncnc32)cc1C` to `Cc1ccc(N(C)C(=O)Cn2nc(Cc3ccncc3)c3ccccc3c2=O)cc1C`, the inhibition falls from 20.1% to 3.59%.

Compared with `COc1cc(Cl)c(C)cc1NC(=O)CSCc1nc(-c2ccc(OC)c(OC)c2)no1`, `COc1ccc(Cn2ccc3nc(C)c(C(=O)Nc4ccc(OC)c(OC)c4)cc3c2=O)cc1` is higher in inhibition: 6.23% for the first, 6.83% for the second.

Going from `Cn1c(NCc2ccccc2F)nc2ccccc21` to `COc1ccc(NCc2nc3ccccc3n2CCOc2ccccc2C)cc1`, the inhibition rises from -0.304% to 4.04%.

Compared with `Cc1cccc(C)c1NC(=O)C1CCN(S(=O)(=O)c2cccc3nsnc23)CC1`, `CCN(CC)c1ccc(NC(=O)CCS(=O)(=O)c2cccc3nsnc23)c(C)c1` is higher in inhibition: -18.1% for the first, 3.78% for the second.

Going from `Cc1cc(C)cc(OCCOCCn2c(-c3ccc(Cl)cc3)nc3ccccc3c2=O)c1` to `CCOc1ccc(CC(=O)Nc2c(C(=O)c3ccc(Cl)cc3)oc3ccccc23)cc1OCC`, the inhibition falls from -1.07% to -5.83%.

Compared with `CCOc1ccc(-n2c(-c3ccc(OC)cc3)cc3c2CC(C)(C)CC3=O)cc1`, `COc1ccc(N2CCN(CC(O)COc3ccc(C)c(C)c3)CC2)cc1` (centres undefined) is lower in inhibition: 8.94% for the first, -17.5% for the second.

First: C=Cc1ccc(CSc2nc(-c3ccc(Cl)cc3)nc3c2Cc2c(CO)cnc(C)c2O3)cc1
Second: CCOc1cccc(NC(=O)CSc2ncc(-c3ccc(Cl)cc3)[nH]2)c1
The inhibition of the first is lower: -11.1% for the first, 20.9% for the second.

Going from `Cc1ccc(NC(=O)CC2Sc3ccccc3NC2=O)c(C)c1` (centres undefined) to `CCOc1ccc(Br)cc1C1C(C(=O)Nc2ccccc2OC)=C(C)Nc2nnnn21` (centres undefined), the inhibition rises from -8.91% to -7.25%.

Compared with `CCOC(=O)c1ccc(-c2ccc(/C=C(\C#N)C(=O)Nc3cccc(C)c3)o2)cc1`, `CCc1ccc2oc(-c3cccc(NC(=O)c4ccc(-c5cccc([N+](=O)[O-])c5)o4)c3)nc2c1` is higher in inhibition: -7.02% for the first, 0.229% for the second.

First: CCCCN(CCCC)S(=O)(=O)c1ccc(NC(=O)c2c(-c3ccccc3)noc2C)cc1
Second: CCCN(CCC)C(=O)c1c[nH]c2ccc(S(=O)(=O)N(C)c3ccc(Cl)cc3)cc2c1=O
The inhibition of the first is higher: 4.96% for the first, -15.6% for the second.

Going from `CCN(C(=O)c1cc(S(=O)(=O)N2CCCCC2)c[nH]1)c1ccc(OC)cc1` to `COc1ccc(C(CNC(=O)COc2cc(C)c(Cl)c(C)c2)N2CCCCC2)cc1` (centres undefined), the inhibition falls from 12% to -13.3%.

First: CCn1c(=O)c(=O)n(CC)c2cc(N3CCCCC3)c(NC(=O)c3cccc(OC)c3)cc21
Second: COc1cccc(N2CCN(C(=O)CCn3nc(C)c(S(=O)(=O)N4CCCC4)c3C)CC2)c1
The inhibition of the first is lower: -20.6% for the first, 20.1% for the second.

Going from `CC(=O)N1c2ccc(S(=O)(=O)NCCc3cccc(C)c3)cc2CC1C` (centres undefined) to `Cc1cccc(S(=O)(=O)c2cn(Cc3ccccc3)c3cc(N4CCC(C)CC4)c(F)cc3c2=O)c1`, the inhibition rises from 5.85% to 19.8%.

Going from `COc1ccc(-n2c(=O)c3c4c(sc3n(Cc3ccccc3)c2=O)CCC4)c(OC)c1` to `O=C(CSc1nc(=O)n(Cc2ccncc2)c2c1CCC2)Nc1ccccc1`, the inhibition falls from 16.9% to -5.1%.

First: COc1cccc(CN2c3ccccc3-c3nc(SCC(=O)Nc4cccc(C)c4)ncc3S2(=O)=O)c1
Second: Cc1ccccc1NC(=O)CSc1ncc2c(n1)-c1ccccc1N(C)S2(=O)=O
The inhibition of the first is lower: -5.24% for the first, 6.04% for the second.

Going from `CC1CCc2c(sc3nnn(CC(=O)Nc4cccc(C(F)(F)F)c4)c(=O)c23)C1` (centres undefined) to `CCc1cc2c(cc3c(=O)n(CC(=O)NCc4cccc(Cl)c4)nc(CC)n32)s1`, the inhibition rises from -14.1% to -2.92%.

Going from `O=C1C(=O)N(C2CCN(C(=O)c3ccc(F)cc3)CC2)CCN1Cc1ccc(F)cc1` to `O=c1c(S(=O)(=O)c2ccccc2)cn(Cc2ccc(F)cc2)c2cc(N3CCCC3)c(F)cc12`, the inhibition falls from 8.32% to 5.09%.

Compared with `CCN1C(C(=O)c2ccccc2)=C(OC(=O)c2ccc(Cl)cc2)c2ccccc2S1(=O)=O`, `Cc1csc2nc(COC(=O)c3ccccc3NC(=O)c3ccccc3Cl)cc(=O)n12` is higher in inhibition: -7.44% for the first, -0.731% for the second.

Going from `CCc1nnc2c3ccccc3nc(Nc3ccc(F)cc3C)n12` to `COC(=O)c1c(SC)nc2ccccc2c1OCc1cccc(C)c1`, the inhibition falls from 7.43% to -25.2%.

Going from `Cc1cccc(OC(C)C(=O)N2CCC(c3nc4ccccc4o3)CC2)c1C` (centres undefined) to `COc1ccccc1N1CCN(S(=O)(=O)CCNC(=O)c2cc(=O)c3ccccc3o2)CC1`, the inhibition falls from 6.68% to 2.59%.

Going from `CC1=C(C(=O)Nc2ccc(Cl)cc2)C(c2cccs2)n2nc(SCc3cccc(Cl)c3)nc2N1` (centres undefined) to `CCC1=Nc2cc(C(=O)NCCc3ccccc3)ccc2Sc2ccc(Cl)cc21`, the inhibition falls from 1.73% to -1.12%.

Compared with `CCn1c(Oc2ccc(F)cc2F)nc2c1c(=O)n(C)c(=O)n2C`, `COc1ccccc1CCNC(=O)c1cc2c(=O)n3cccc(C)c3nc2n1C` is higher in inhibition: -16.5% for the first, 9.14% for the second.

Compared with `COc1ccc(-n2nc3cc(C)c(NC(=O)COc4cccc(C)c4)cc3n2)cc1`, `COc1cccc(COC(=O)c2nn(-c3ccccc3)nc2N)c1` is higher in inhibition: -0.495% for the first, 13.6% for the second.

Compared with `COc1cccc(CNC(=O)C(=O)NCC(c2cccs2)S(=O)(=O)c2cccs2)c1` (centres undefined), `COc1cccc(CNC(=O)C2CCC(CNS(=O)(=O)c3cccs3)CC2)c1` (centres undefined) is lower in inhibition: 6.9% for the first, -1.91% for the second.

First: Cc1cc(S(=O)(=O)Nc2cc3c(cc2C)n(C)c(=O)c(=O)n3C)ccc1F
Second: Cc1ccc(Cn2cc(S(=O)(=O)c3ccccc3)c(=O)c3cc(F)c(N4CCOCC4)cc32)cc1
The inhibition of the first is higher: 1.32% for the first, -8.47% for the second.

Compared with `Cc1cn2c(=O)cc(COC(=O)c3cccc(NC(=O)C(C)Oc4ccccc4)c3)nc2s1` (centres undefined), `Cc1ccccc1C(=O)Nc1cccc(-c2nc3cccnc3s2)c1` is lower in inhibition: 10.3% for the first, 4.08% for the second.

Compared with `CNC(=O)C1CCC(Cn2c(=O)c3sccc3n(Cc3ccccc3)c2=O)CC1` (centres undefined), `CC1CCN(S(=O)(=O)c2ccc3c(c2)N(CC(=O)NCc2ccccc2Cl)C(=O)CO3)CC1` is lower in inhibition: 10.2% for the first, -4.25% for the second.

First: COc1cc(OC)c(NC(=O)C(C)n2c(=O)cc(-c3ccccc3)c3c(C)nn(C)c32)cc1Cl (centres undefined)
Second: COc1cccc(NC(=O)c2sc(-n3nc(C)c(Cc4ccccc4Cl)c3C)nc2C)c1
The inhibition of the first is lower: -11.5% for the first, 13.5% for the second.

Going from `CCc1ccc(NC(=O)N2CC=C(c3c[nH]c4ccccc34)CC2)cc1` to `Cc1ccccc1NC(=O)c1ccc(NC(=O)N2CCSc3ncccc32)cc1`, the inhibition rises from -15.2% to 11.8%.

Compared with `COc1ccc(C(=O)NCC(c2cccnc2)N2CCc3ccccc3C2)cc1` (centres undefined), `COc1ccc(NC(=O)C(c2ccc(OC)cc2)N(C)C(=O)Cc2cccs2)cc1` (centres undefined) is higher in inhibition: -10.4% for the first, 6.3% for the second.

Compared with `CCOC(=O)c1[nH]c(C)c(CCC(=O)Nc2cc(Cl)ccc2C)c1C`, `COc1cccc(CNC(=O)CCc2c(C)c3cc4c(C)coc4cc3oc2=O)c1` is higher in inhibition: -5.55% for the first, -1.47% for the second.

First: O=C(NCCS(=O)(=O)N1CCN(c2ccccc2F)CC1)c1cc(=O)c2ccccc2o1
Second: Cn1ccc2cc(S(=O)(=O)N3CCN(C(=O)Nc4cccc(F)c4)CC3)ccc21
The inhibition of the first is higher: -2.8% for the first, -15.4% for the second.

First: O=C(NCCc1ccc(Cl)cc1)c1ccc(CS(=O)(=O)Cc2ccc(F)cc2)o1
Second: O=C(Nc1ccc(F)cc1)c1ccc(-n2cnc3cccnc32)cc1
The inhibition of the first is lower: -7.77% for the first, 13.1% for the second.

First: COCCn1c(C)cc(O)c(C(c2ccccc2)N2CCN(c3ccc(F)cc3)CC2)c1=O (centres undefined)
Second: COc1ccc(OC)c(-n2c(=O)[nH]c3cc(C(=O)NCCc4ccc(OC)c(OC)c4)ccc3c2=O)c1
The inhibition of the first is lower: 0.939% for the first, 12.8% for the second.

First: Cc1ccc(OCc2cc(=O)n3c4c(sc3n2)CCCC4)c(C)c1
Second: CCCC(=O)N(c1ccc2oc3c(c2c1)CCCC3)S(=O)(=O)c1ccc(CC)cc1
The inhibition of the first is higher: 25.4% for the first, -22.2% for the second.

`CC(C)(Oc1ccc(Cl)cc1)C(=O)Nc1ccc(-c2nc3ncccc3o2)cc1` was tested, and the inhibition was 5.93%.

With `Cc1cccc(NC(=O)c2nc[nH]c2C(=O)N2CCC(C)CC2)c1` the inhibition was active: 39%.
With `Cc1nc(-c2ccc(F)cc2)c(CC(=O)N2CCN(S(=O)(=O)c3cccc([N+](=O)[O-])c3)CC2)s1` the inhibition was active: 33.8%.
For `CCCCN(C(=O)Cc1cccc(F)c1)c1c(N)n(CCC)c(=O)[nH]c1=O`, the inhibition was active: 36.5%.
With `Cc1ccsc1CN1CCN(c2ccccn2)CC1` the inhibition was active: 77.2%.
In the case of `COc1ccc(CNC(=O)c2cc(-c3ccccc3OC)on2)cc1`, the inhibition is reported as active: 91.3%.
With `Cc1cccc(NC(=O)CCNS(=O)(=O)c2cccc3nonc23)c1C` the inhibition was active: 30.7%.
In the case of `CCC(C)c1ccccc1N1CC(C(=O)N2CCN(S(=O)(=O)c3cccc([N+](=O)[O-])c3)CC2)CC1=O` (centres undefined), the inhibition is reported as active: 35.8%.
`O=C(CCCn1cnc([N+](=O)[O-])n1)Nc1cccc(O)c1` was tested, and the inhibition was active: 34.7%.
With `CC(NC(=O)c1ccc(Cl)cc1)c1nnc(SCc2ccc([N+](=O)[O-])cc2)n1C` (centres undefined) the inhibition was active: 32.3%.
With `COc1ccc(NC(=O)C2CCCN(c3cc(C)nc4ncnn34)C2)cc1` (centres undefined) the inhibition was active: 30.1%.
For `OCCN1CCN(CCCN2c3ccccc3Sc3ccc(Cl)cc32)CC1`, the inhibition was active: 85.7%.
